The record followed here is publication PMC4081100.

What all share (assay): universal protein binding microarray (PBM)
Holding throughout (details): transcription factors of Arabidopsis thaliana; high values mean tight binding; most listed sequences are background and not binding sites; double strand, one strand shown

The target in test [1] is GST-NTL6(1-168) (UniProt Q9SCK6).
The target of test [2] is T1, GST-ANAC019 NAC domain (UniProt Q9C932).
T1 sequence: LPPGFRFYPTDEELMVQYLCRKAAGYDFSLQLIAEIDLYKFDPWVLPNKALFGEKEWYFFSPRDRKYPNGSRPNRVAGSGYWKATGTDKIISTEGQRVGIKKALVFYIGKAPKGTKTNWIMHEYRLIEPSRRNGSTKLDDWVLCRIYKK

Test [3] has as its target T2, GST-ATAF1 NAC domain (UniProt Q39013).
T2 sequence: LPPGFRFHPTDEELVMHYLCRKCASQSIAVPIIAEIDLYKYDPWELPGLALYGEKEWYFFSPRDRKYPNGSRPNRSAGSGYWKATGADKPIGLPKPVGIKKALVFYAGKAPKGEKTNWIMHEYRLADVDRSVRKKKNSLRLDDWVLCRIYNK

Test [4] has as its target T3, GST-NST2(1-184) (UniProt Q9M274).
T3 sequence: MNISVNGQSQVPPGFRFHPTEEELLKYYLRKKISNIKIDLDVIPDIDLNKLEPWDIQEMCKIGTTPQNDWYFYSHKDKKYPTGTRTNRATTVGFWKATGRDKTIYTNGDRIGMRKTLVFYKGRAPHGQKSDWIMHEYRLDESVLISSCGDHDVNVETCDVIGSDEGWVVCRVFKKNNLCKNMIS

For test [5], the target named is T4, GST-NTL8 NAC domain (UniProt Q9XIN7).
T4 sequence: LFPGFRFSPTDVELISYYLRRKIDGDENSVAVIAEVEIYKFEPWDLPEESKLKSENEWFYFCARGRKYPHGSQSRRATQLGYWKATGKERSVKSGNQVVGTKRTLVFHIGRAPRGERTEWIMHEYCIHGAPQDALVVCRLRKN

The target in test [6] is T5, GST-VND7 NAC domain (UniProt Q9C8W9).
T5 sequence: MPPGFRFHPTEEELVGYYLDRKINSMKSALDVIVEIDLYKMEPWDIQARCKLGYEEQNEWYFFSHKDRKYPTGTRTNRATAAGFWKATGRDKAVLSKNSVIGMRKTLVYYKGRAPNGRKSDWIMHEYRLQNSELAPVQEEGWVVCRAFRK

Test [7] concerns the target T6, GST-VOZ2 (Arabidopsis thaliana) (UniProt Q9SLB9).
T6 sequence: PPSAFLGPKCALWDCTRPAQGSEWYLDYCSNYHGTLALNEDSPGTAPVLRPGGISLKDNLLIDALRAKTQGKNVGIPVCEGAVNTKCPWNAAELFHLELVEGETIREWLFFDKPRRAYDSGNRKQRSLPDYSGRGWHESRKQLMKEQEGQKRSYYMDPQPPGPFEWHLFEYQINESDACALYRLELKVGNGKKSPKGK

For test [8], the target named is GST-WRKY1(266-371) (UniProt Q9SI37).
The target of test [9] is T7, GST-ANAC092(1-285) full length (UniProt Q9FKA0).
T7 sequence: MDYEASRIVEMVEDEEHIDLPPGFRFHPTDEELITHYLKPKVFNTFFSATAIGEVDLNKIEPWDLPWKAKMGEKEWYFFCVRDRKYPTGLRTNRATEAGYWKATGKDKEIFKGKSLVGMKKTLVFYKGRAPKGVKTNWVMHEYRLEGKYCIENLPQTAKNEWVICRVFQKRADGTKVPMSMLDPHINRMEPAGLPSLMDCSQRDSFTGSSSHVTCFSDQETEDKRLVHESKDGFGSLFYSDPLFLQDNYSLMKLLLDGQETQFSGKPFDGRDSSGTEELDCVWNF

Test [10] has as its target T8, GST-ANAC055(1-171) (UniProt Q9LDY8).
T8 sequence: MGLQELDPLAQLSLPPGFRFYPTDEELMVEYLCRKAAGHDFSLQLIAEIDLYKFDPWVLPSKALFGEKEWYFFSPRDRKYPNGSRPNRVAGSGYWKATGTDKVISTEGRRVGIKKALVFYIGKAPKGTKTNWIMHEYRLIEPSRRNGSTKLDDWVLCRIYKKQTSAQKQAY

Test [11] concerns the target T9, GST-NAP(1-166) (UniProt O49255).
T9 sequence: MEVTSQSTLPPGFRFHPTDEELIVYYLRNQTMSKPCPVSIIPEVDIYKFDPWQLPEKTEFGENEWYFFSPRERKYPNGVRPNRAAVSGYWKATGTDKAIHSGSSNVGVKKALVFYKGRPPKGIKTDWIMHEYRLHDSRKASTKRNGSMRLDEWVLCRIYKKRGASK

This is a selection; strong and weak results do not stand in their true shares. For some assays here: At the low end of the ranking, values are background and their order means little. This is one part of the list. For some assays here: The source does not settle which construct or isoform was used.

For the sequence ACGCAAAT, the binding signal in [1] stood at 0.0591 E-score; in [2], 0.268 E-score; in test [3], 0.262 E-score; in test [4], 0.265 E-score; in [5], 0.0579 E-score; in test [6], 0.281 E-score. In addition, the binding signal was determined as 0.137 E-score in test [7] and 0.0212 E-score in test [8].
AACACGGA: the binding signal in test [1] came to 0.0315 E-score; in test [9] it was 0.274 E-score; in test [4], 0.173 E-score; in test [5], 0.0255 E-score; in test [6] it was 0.362 E-score; in test [7], 0.0321 E-score. Moreover, in test [8], the binding signal is -0.0321 E-score.
Regarding AACACGTT, the binding signal is -0.0691 E-score in test [1]; 0.284 E-score in [10]; 0.259 E-score in test [11]; 0.222 E-score in test [4]; 0.132 E-score in test [5]; 0.203 E-score in test [6]. Moreover, the figures for the binding signal in test [7] and in test [8] were -0.0565 E-score and -0.0466 E-score, respectively.
As for CACGGCAC, the binding signal was -0.0942 E-score in test [1]; 0.484 E-score in test [2]; 0.474 E-score in test [9]; 0.0373 E-score in test [5]; 0.485 E-score in test [6]; -0.0214 E-score in [7]. Also, the binding signal in test [8] was -0.0768 E-score.
Take TACCTTAA: the binding signal in [1] is 0.42 E-score; in test [2], -0.00139 E-score; in [11] it was -0.0262 E-score; in test [4] it was 0.149 E-score; in [5] it was 0.298 E-score; in [6], 0.0949 E-score. The binding signal was 0.0461 E-score in test [7] and -0.141 E-score in test [8].
For the sequence GTTGCGTA, the binding signal in [1] was 0.184 E-score; in test [2], 0.461 E-score; in test [10], 0.431 E-score; in test [3], 0.415 E-score; in test [11] it was 0.477 E-score; in test [5], 0.216 E-score. In addition, the binding signal in test [6] is 0.466 E-score; in [7] it was 0.31 E-score; in test [8], 0.0239 E-score.
Consider CCACGCTA, for which the binding signal in [1] was 0.0243 E-score; in test [2] it was 0.155 E-score; in test [10] it was -0.0151 E-score; in [3] it was -0.021 E-score; in test [11] it was -0.0239 E-score; in test [6], 0.0402 E-score. Also, the binding signal in test [7] is 0.0992 E-score; in test [8], -0.0759 E-score.
With ATGCGTGC, the binding signal in [1] was -0.0926 E-score; in test [2], 0.276 E-score; in test [5], -0.0402 E-score; in test [6], 0.138 E-score; in [7], -0.0917 E-score; in test [8], -0.151 E-score.
For CACGACAC, the binding signal in test [1] was -0.0228 E-score; in [10] it was 0.372 E-score; in [9] it was 0.355 E-score; in [6] it was 0.348 E-score; in test [7] it was -0.129 E-score; in [8], -0.057 E-score.
For AAGGAATC, the binding signal is 0.42 E-score in [1]; -0.00477 E-score in test [2]; -0.00846 E-score in test [10]; 0.0816 E-score in test [3]; -0.224 E-score in test [11]; 0.0278 E-score in [6]. For the same sequence, the binding signal was -0.0879 E-score in test [7] and -0.0502 E-score in [8].
On to TGCACGCA, for which the binding signal was -0.0893 E-score in [1]; 0.355 E-score in test [2]; 0.458 E-score in test [9]; 0.265 E-score in [11]; -0.0147 E-score in [5]; 0.32 E-score in [6]. Moreover, the binding signal in test [7] is 0.0267 E-score; in test [8], -0.168 E-score.
For the sequence GAAACGTA, the binding signal in [1] was found to be 0.0734 E-score; in [2], 0.241 E-score; in test [10] it was 0.219 E-score; in [11], 0.223 E-score; in test [4], 0.212 E-score; in test [6], 0.268 E-score. Moreover, the values for the binding signal in test [7] and in test [8] were 0.0109 E-score and -0.0124 E-score, respectively.
As to GACACGGC, the binding signal is -0.154 E-score in test [1]; 0.42 E-score in [2]; 0.387 E-score in test [9]; 0.237 E-score in test [11]; -0.0307 E-score in test [4]; 0.0582 E-score in [5]. Besides, the binding signal is 0.348 E-score in test [6], -0.0746 E-score in test [7] and -0.0304 E-score in [8].
As for ATACGTCA, the binding signal in [1] was 0.00949 E-score; in test [3], 0.345 E-score; in test [4] it was 0.183 E-score; in test [5], -0.15 E-score; in test [6] it was 0.322 E-score; in test [7], -0.0854 E-score. The binding signal in test [8] was 0.196 E-score.
Consider ACGTTTTC, for which the binding signal in [1] was 0.196 E-score; in test [11], 0.29 E-score; in test [5], 0.225 E-score; in [6] it was 0.327 E-score; in test [7] it was 0.0558 E-score; in test [8], -0.0731 E-score.
For AGTCAACA, the binding signal in test [1] is 0.0859 E-score; in test [2] it was 0.125 E-score; in [10], 0.0844 E-score; in test [11], -0.0353 E-score; in test [4] it was 0.0624 E-score; in test [6], 0.0805 E-score. Also, the binding signal in test [7] was -0.0554 E-score; in [8] it was 0.488 E-score.
Consider ACGTTATC, for which the binding signal in test [1] is 0.0401 E-score; in test [2] it was -0.00417 E-score; in test [11], 0.162 E-score; in test [5], -0.13 E-score; in test [6], 0.0197 E-score; in test [7] it was -0.00308 E-score. This sequence registered a binding signal in test [8] of 0.0471 E-score.
With GTGGCGTA, the binding signal in [1] was 0.006 E-score; in test [2], 0.148 E-score; in test [10], 0.144 E-score; in [9] it was 0.459 E-score; in [4], 0.3 E-score; in test [5], -0.0333 E-score. Moreover, the binding signal in test [6] is 0.0712 E-score; in [7] it was 0.0791 E-score; in test [8] it was -0.0871 E-score.
